# Results from PubChem BioAssay AID1508642 (National Center for Advancing Translational Sciences (NCATS), 2021).
# About 200 (0.47%) of roughly 43,000 compounds were called active. Inconclusive results (about 12%) are left out. Calls follow the shape of the dose curve; as a rule, active = well fitted cell-killing curve with a large enough effect; inconclusive = small, poorly fitted or top-dose-only effect, or effect the other way; inactive = flat fitted curve, though single readings scatter. This is one part of the list.
# Test: Cell viability qHTS assay in S16 Pmp22-F2sN cells; also: nearly all actives have a fitted effect of over 65% in size
# Conditions: S16 Pmp22-F2sN Schwann cells (luciferase reporters placed in the Pmp22 gene) viability, CellTiter-Glo, 24 h; series mostly up to 57.5 µM; activity change, negative = cytotoxicity: at the top concentration
# In short: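 Seed 500-1,000 S16 Pmp22-F2sN cells per well in phenol-red-free DMEM with 10% heat-inactivated FBS; pin-add 23 nL compound; incubate 24 h at 37C; add CellTiter-Glo, wait 15 min protected from light; read luminescence.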
# % is scaled to controls: 0 for no effect and ±100 for the full control effect.
row,Compound,"activity change, negative = cytotoxicity"
1,CCc1ccc(CNC(=O)c2cc3ccccn3n2)cc1,inactive: 2.28%
2,CCCc1nc2ccccc2n1CC(O)COc1ccc(C(=O)OC)cc1 (stereo unspecified),inactive: 17.1%
3,COc1ccc(-n2c(SCC(=O)N3CCc4ccccc43)nc3c([nH]c4ccccc43)c2=O)cc1,inactive: 0.376%
4,COc1ccc(C(=O)Nc2ccc3oc(-c4ccc(F)cc4Cl)nc3c2)cc1,inactive: 12.1%
5,CC(C)(C)OC(=O)N1CCC(c2c(C(=O)N3CCN(c4ccccn4)CC3)cnn2-c2ccccc2)CC1,inactive: 6.17%
6,COc1ccc(-c2nc(C)c(CCNC(=O)c3cccs3)s2)cc1OC,inactive: 1.87%
7,COc1ccccc1CNc1cc(C)nc2nc(-c3ccc(C)cc3)nn12,inactive: 19.2%
8,Cc1ccc2nc(NC(=O)CSc3nccn3-c3ccc(Cl)cc3)sc2c1,inactive: -1.89%
9,CCC1CCCCN1S(=O)(=O)c1ccc(C(=O)Nc2sc3c(c2C(N)=O)CCC3)cc1 (stereo unspecified),inactive: -25.5%
10,O=C(CSc1nnc(-c2ccccc2F)o1)Nc1cccc(C(F)(F)F)c1,inactive: 12.3%
11,O=C(Nc1ccc(Cl)cc1F)c1cnc2sc(N3CCOCC3)nn2c1=O,inactive: 8.06%
12,COCCCN1C(=O)c2ccccc2CC1(C)C(=O)NC1CCCCC1 (stereo unspecified),inactive: 25.2%
13,COc1ccc(C2C(C(=O)Nc3ccc(Cl)cc3)=C(C)Nc3nc(SCc4cccc(C)c4)nn32)cc1OC (stereo unspecified),inactive: 1.48%
14,Cc1ccc(OCC(=O)NCC2(N(C)C)CCCCC2)cc1C,inactive: 6.77%
15,Cc1ccc(C)c(NC(=O)Cn2c(=O)n(-c3ccc(CC(=O)NCC4CCCO4)cc3)c(=O)c3ccccc32)c1 (stereo unspecified),inactive: -7.11%
16,CCCOc1ccc(C(=O)NCC2OCCc3ccccc32)cc1 (stereo unspecified),inactive: 1.3%
17,Cc1ccc(CNc2oc(-c3ccc(COc4ccc(C)cc4)o3)nc2C#N)cc1,inactive: -6.41%
18,Cc1ccc(NC(=O)c2c(C)nc3sc(C(=O)Nc4ccc(F)cc4)c(N)c3c2-c2ccc(C)o2)c(C)c1,inactive: 1.56%
19,Cc1cc(CN2CCN(c3cccc(C)c3C)CC2)cs1,inactive: -12.7%
20,CCOC(=O)C1=C(CN2CCN(c3ccc(OC)cc3)CC2)NC(=O)NC1c1ccc(Cl)cc1 (stereo unspecified),inactive: -17.3%
21,CCOc1ccc(NC(=O)C2CCCN(S(=O)(=O)c3c(C)noc3/C=C/N(C)C)C2)cc1 (stereo unspecified),inactive: 0.418%
22,COc1cccc(-n2c(SCC(=O)Nc3nnc(C)s3)nc3c([nH]c4ccccc43)c2=O)c1,inactive: -14%
23,CC(C)Cn1c(=O)c2sccc2n2c(CCCC(=O)N3CCN(c4ccc(F)cc4)CC3)nnc12,inactive: 27.6%
24,Fc1ccc2[nH]c(-c3cccs3)cc2c1,inactive: 4.81%

row,Compound,"activity change, negative = cytotoxicity"
1,Cc1cc(C)cc(NC(=O)c2cnc3sc(N4CCCC4)nn3c2=O)c1,inactive: -8.35%
2,CCOC(=O)c1c(S(=O)(=O)N2CCC(C(=O)Nc3ccc(C)cc3C)CC2)c(C)n(C)c1C,inactive: 12.8%
3,CCc1ccccc1NC(=O)c1nnn(Cc2ccc(Cl)cc2)c1N,inactive: -5.81%
4,COCCNC(=O)CSc1nc(-c2ccccc2)[nH]c1-c1ccc(OC)cc1,inactive: 1.02%
5,Cc1ccc(-c2nc(CSc3nncn4c3cc3occc34)c(C)o2)cc1,inactive: -0.384%
6,COc1ccc(C)cc1NC(=O)N1CC(C)Sc2ccccc21 (stereo unspecified),inactive: 19.4%
7,Cc1ccc(Cn2cc(C(=O)c3ccc4c(c3)OCO4)c(=O)c3cc(C)ccc32)cc1,inactive: -4.55%
8,O=C(Nc1cccc(C(F)(F)F)c1)c1cc2nc(-c3ccc4c(c3)OCO4)cc(C(F)(F)F)n2n1,inactive: -3.88%
9,COc1cc(NC(=O)Cn2c(=O)n(CC3CCCO3)c(=O)c3ccccc32)cc(OC)c1 (stereo unspecified),inactive: 16.6%
10,CCOc1ccc(CCNc2nc3ccccc3n3c(C)nnc23)cc1OCC,inactive: -2.7%
11,COc1ccc(C(=O)Nc2nnc(C(C)C)s2)cc1OC,inactive: 10.6%
12,COc1ccc2sc(N(Cc3cccnc3)C(=O)COc3ccccc3)nc2c1,inactive: 7.6%
13,Cc1cc(C)cc(NC(=O)Nc2nnc(N(C)C3CCCCC3)s2)c1,inactive: 4.56%
14,COc1ccccc1-c1noc(CCCC(=O)NCc2ccco2)n1,inactive: 9.41%
15,COc1ccccc1Cc1nc2ccccc2nc1SCC(=O)Nc1cc(Cl)ccc1OC,inactive: -6.27%
16,CC(=O)c1ccc(NS(=O)(=O)c2ccc(-c3cnc(C4CC4)o3)cc2)cc1,inactive: 6.01%
17,Cc1ccc(CNC(=O)c2cnn(-c3cccc(C)c3)c2C2CCN(C(=O)OC(C)(C)C)CC2)cc1,inactive: -29.6%
18,CCCCc1nn2c(=O)cc(COC(=O)c3ccc(NC(=O)C(CC)CC)cc3)nc2s1,inactive: 14.2%
19,Cc1ccc(NC(=O)c2cc3nc(-c4ccccc4)cc(-c4ccccc4)n3n2)cc1,inactive: 1.5%
20,CCn1cnc2c(=O)oc3ccc(S(=O)(=O)Nc4ccc(OC)cc4)cc3c21,inactive: -2.24%
21,COc1ccc(CCNC(=O)c2ccc(Cn3c(=O)c4ccccc4n(Cc4cccc(C)c4)c3=O)cc2)cc1OC,inactive: 15.1%
22,CCOCCCn1c(=N)c(C(=O)NC2CCCC2)cc2c(=O)n3cc(C)ccc3nc21,inactive: 18.1%
23,Cc1ccc2[nH]c(=O)c(CN(C(=O)c3cccc(Cl)c3)C(C)(C)C)cc2c1,inactive: -0.739%
24,Cc1ccccc1C(=O)Nc1cccc(C(=O)OCc2cc(=O)n3ccsc3n2)c1,inactive: -4.58%

row,Compound,"activity change, negative = cytotoxicity"
1,Cc1ccc(C(=O)COC(=O)C(Cc2c[nH]c3ccccc23)NC(=O)c2ccc(C(C)(C)C)cc2)cc1 (stereo unspecified),inactive: 8.06%
2,CSc1ccc(Cn2nnc(C(=O)Nc3ccc(C)cc3Cl)c2N)cc1,inactive: 1.29%
3,Cc1cc(C)cc(NC(=O)CSc2nc(=O)n(Cc3ccccn3)c3c2CCC3)c1,inactive: -13.1%
4,CCOC(=O)C(C)Sc1nc(-c2ccccc2Cl)cc(-c2ccccc2)c1C#N (stereo unspecified),inactive: 1.46%
5,CCN(c1ccccc1)S(=O)(=O)c1ccc(-c2cc(C)no2)s1,inactive: -12.5%
6,CC(C)CC(=O)Nc1cc(-c2ccccc2F)nn1-c1ccccc1,inactive: -6.41%
7,Cc1cccc(C)c1OCc1cc(=O)n2c3c(sc2n1)CCCC3,inactive: 19.3%
8,Cc1cccc(Oc2nc3c(c(=O)n(C)c(=O)n3C)n2Cc2ccccc2)c1C,inactive: 14%
9,COc1ccc(-n2cc(-c3ccccc3)c3c(NC4CCCC4)ncnc32)cc1,inactive: -17.1%
10,CCOc1ccc(CNC(=O)CC(C)n2nc(C)cc2C)cc1OC (stereo unspecified),inactive: 3.06%
11,Cc1ccc2c(c1)c1c(c(=O)n(-c3ccccc3)c(=O)n1CC(=O)c1ccc(F)cc1)n2C,inactive: 0.578%
12,CC1=C(C(=O)Nc2ccc(C)cc2C)C(c2ccc(C(=O)O)cc2)n2nc(SCc3ccccc3)nc2N1 (stereo unspecified),inactive: 2.49%
13,CCc1cccc(NC(=O)Cn2c(=O)n(-c3cccc(Cl)c3)c(=O)c3c2c2cc(C)ccc2n3C)c1,inactive: 19.2%
14,COc1ccc(OC)c(CNC(=O)c2cnc3c(C)cccn3c2=O)c1,inactive: 10.2%
15,Cc1ccc(NC(=O)c2ccc(CN3CC(=O)N4CCCCC4C3=O)cc2)cc1 (stereo unspecified),inactive: 22.1%
16,O=C(Nc1cccc(C(F)(F)F)c1)N1CC2CCCN2c2ccccc21 (stereo unspecified),inactive: -21.4%
17,COc1ccc(-n2nc(C(=O)Nc3ccc(Cl)cn3)c3c4ccccc4n(C)c3c2=O)cc1,inactive: -0.33%
18,Cc1cccc(NC(=O)Cn2nc3c4ccccc4n(Cc4ccccc4)cc-3c2=O)c1,inactive: 8.21%
19,COc1ccc2cc(-c3nnc(Nc4ccccc4)s3)c(=O)oc2c1,inactive: -3.76%
20,CC(=O)c1cc(-c2ccc(F)cc2)n(CC(=O)NC2CCC(C)CC2)c1C (stereo unspecified),inactive: -1.73%
21,CC(=O)c1cccc(NC(=O)Nc2nnc(N3CCCC3)s2)c1,inactive: -16.8%
22,COc1cccc(CNC(=O)c2ccc3c(=O)n4nc(Nc5ccccc5)sc4nc3c2)c1,inactive: -2.87%
23,CCCOc1ccc(CNC(=O)c2ccc(C)c(-n3c(C)nc4cccnc43)c2)cc1,inactive: -2.62%
24,Cc1oc2ncn(C)c(=O)c2c1C(=O)NCCCN1CCCCC1C (stereo unspecified),inactive: 0.594%

row,Compound,"activity change, negative = cytotoxicity"
1,Cc1ccc(N2CCN(C(=O)c3cnn(-c4ccc(F)cc4F)c3C3CCN(C(=O)OC(C)(C)C)CC3)CC2)c(C)c1,inactive: -10.1%
2,CN(Cc1ccccc1)S(=O)(=O)c1ccc2[nH]c3c(c2c1)CCCCC3,inactive: -7.58%
3,CCN1CCN(C(c2ccc(C)cc2)c2c(O)cc(C)n(Cc3ccco3)c2=O)CC1 (stereo unspecified),inactive: -2.05%
4,COc1ccc(-n2nc(C(=O)O)c(=O)n(C)c2=O)cc1,inactive: -0.172%
5,COc1cc(OC)c(N(C)C(=O)c2cn(C3CCCC3)c(=O)c3c2c2ccccc2n3C)cc1Cl,inactive: -29.9%
6,Cc1ccccc1C(=O)OCc1cc(=O)n2nc(C(C)C)sc2n1,inactive: 3.26%
7,Cc1ccc(Nc2nc3ccccc3c3nnc(C)n23)c(C)c1,inactive: 6.25%
8,COc1ccc(-c2cc3nc(C)c(CCC(=O)N4CCN(c5ccc(F)cc5)CC4)c(C)n3n2)c(OC)c1,inactive: -3.63%
9,COc1ccc(NC(=O)c2c(C)oc3ccc(O)c(CN4CCN(Cc5ccccc5)CC4)c23)cc1Cl,inactive: -7.55%
10,CCCCN(CCCC)CCNC(=O)CN1C(=O)CSc2ccc(S(=O)(=O)N3CCOCC3)cc21,inactive: -1.98%
11,COc1ccccc1OCC(=O)NC1CC(=O)N(c2ccc3c(c2)OCCO3)C1 (stereo unspecified),inactive: 3.48%
12,CC(=O)c1cccc(Nc2cc(C)nc3nc(Cc4ccccc4)nn23)c1,inactive: 8.31%
13,COc1ccc(CNC(=O)c2cc(=O)[nH]c3ccc(S(=O)(=O)N4CCCC4)cc23)c(OC)c1,inactive: 10.2%
14,O=C(NCCc1ccccc1)c1ccc2c(c1)N(Cc1ccccc1)C(=O)c1ccccc1S2(=O)=O,inactive: -9.69%
15,COc1ccc(Cl)cc1NC(=O)c1ccc2c(c1)CCN2S(C)(=O)=O,inactive: -6.05%
16,Cc1cc(NC(=O)CSc2nc(-c3ccccc3C)nc3c2c(=O)n(C)c(=O)n3C)no1,inactive: 5.14%
17,CCOc1cc(C(=O)Nc2cccc3cccnc23)cc(OCC)c1OCC,inactive: -1.37%
18,CC(=O)c1cccc(NC(=O)C(CC(C)C)NS(=O)(=O)c2ccc3c(c2)CCN3C(C)=O)c1 (stereo unspecified),inactive: -10.1%
19,CCOC(=O)CN(Cc1ccccc1)C(C(=O)NC1CCCCC1)c1ccc(OC)cc1 (stereo unspecified),inactive: -17.1%
20,Cc1c(Cl)cccc1NC(=O)C1CCCN(c2ncnc3onc(C)c23)C1 (stereo unspecified),inactive: 1.33%
21,CCOC(=O)N1CCC(NC(=O)c2cnn(-c3cccc(F)c3)c2-n2cccc2)CC1,inactive: -0.0256%
22,COc1ccc(CCC(=O)NCc2nc3cccnc3n2Cc2ccc(F)cc2)cc1,inactive: 1.51%
23,CC1CCN(S(=O)(=O)c2ccc3c(c2)c(=O)c(C(=O)NC(C)c2ccccc2)cn3C)CC1 (stereo unspecified),inactive: -20.7%
24,Cc1ccc(Cl)cc1N1CCN(C(=O)c2ccc3c(c2)CCN3S(=O)(=O)c2ccccc2)CC1,inactive: 5.63%
